# Assay results as given in the BET-seq Pho4 binding data (Le et al. 2018).
# The list shows a part of the results. These are noisy estimates, calculated here from bound and input reads.
# Molecular target: T1, Pho4 (S. cerevisiae) (UniProt P07270)
# T1 sequence: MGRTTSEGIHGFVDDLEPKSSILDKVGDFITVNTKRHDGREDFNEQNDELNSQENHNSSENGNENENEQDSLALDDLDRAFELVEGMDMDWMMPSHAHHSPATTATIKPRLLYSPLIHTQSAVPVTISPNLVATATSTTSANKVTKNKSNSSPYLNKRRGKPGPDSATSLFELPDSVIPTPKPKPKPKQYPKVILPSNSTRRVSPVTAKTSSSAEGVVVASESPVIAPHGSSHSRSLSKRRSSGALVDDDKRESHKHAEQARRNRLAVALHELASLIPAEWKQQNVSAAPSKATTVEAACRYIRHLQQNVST
# Assay: relative binding free energy (BET-seq); higher = weaker binding
# Settings: reference: library average
row,Sequence,relative binding free energy
1,GTAGTCACGTGGAGTT,0.544 kJ/mol
2,GTTGGCACGTGCTCGT,-0.377 kJ/mol
3,GGATTCACGTGGCGAT,1.17 kJ/mol
4,AGAGTCACGTGGGTGC,-0.879 kJ/mol
5,CTAGGCACGTGGCGGA,-0.879 kJ/mol
6,AGTTGCACGTGTAGAG,0.0418 kJ/mol
7,GTTCGCACGTGTTCTG,0 kJ/mol
8,AATGTCACGTGAGTTA,1.09 kJ/mol
9,GTGGACACGTGAGTGG,1.51 kJ/mol
10,GATCTCACGTGGGGTT,1 kJ/mol
11,GTGGACACGTGGTTGC,0.377 kJ/mol
12,GTTGGCACGTGGGCGT,-1.05 kJ/mol
13,AAGGGCACGTGTTATT,-0.669 kJ/mol
14,TGTGCCACGTGGGTGT,-1.09 kJ/mol
15,GCAGGCACGTGAGGAG,0.251 kJ/mol
16,TATGGCACGTGGTTAA,-0.544 kJ/mol
17,AAAGTCACGTGATATT,0.92 kJ/mol
18,GGGATCACGTGTGTGG,1.13 kJ/mol
19,TGAGCCACGTGTTATT,0.209 kJ/mol
20,TTGTGCACGTGTGAGG,0.544 kJ/mol
21,AATATCACGTGGTGTC,0.209 kJ/mol

row,Sequence,relative binding free energy
1,TTATTCACGTGGTCGG,0.209 kJ/mol
2,AGCGCCACGTGGTTGG,-0.502 kJ/mol
3,ATGTACACGTGAAGAG,1 kJ/mol
4,AATGACACGTGTGATG,1.17 kJ/mol
5,GTGTACACGTGTGGAT,0.209 kJ/mol
6,TATTTCACGTGAACGG,1.88 kJ/mol
7,AAGGGCACGTGGCGAG,-0.711 kJ/mol
8,TCGGTCACGTGTTCAT,1.05 kJ/mol
9,CTGGGCACGTGTTGGA,-0.711 kJ/mol
10,GGTTGCACGTGATAGG,0.377 kJ/mol
11,GGATTCACGTGGGGAC,1.13 kJ/mol
12,GTAGACACGTGATCGT,0.544 kJ/mol
13,TGCTACACGTGTTTTA,0.46 kJ/mol
14,GTGCGCACGTGAAGGT,0.753 kJ/mol
15,CTGGACACGTGGTTTA,0.418 kJ/mol
16,CGGGTCACGTGACGGT,0.962 kJ/mol
17,TTATCCACGTGGGTGA,-0.837 kJ/mol
18,AGTTACACGTGCTGGA,0.418 kJ/mol
19,GAGTTCACGTGGTGCG,1.26 kJ/mol
20,TAGAGCACGTGTTAGG,-0.628 kJ/mol
21,AGGGTCACGTGGGATC,0.251 kJ/mol

row,Sequence,relative binding free energy
1,CTTTACACGTGAGTGT,0.962 kJ/mol
2,TGTGTCACGTGTTTCT,0.293 kJ/mol
3,TGAGTCACGTGTTAAG,0.502 kJ/mol
4,AGTCGCACGTGAAGGG,1.05 kJ/mol
5,TATTCCACGTGATAGG,0.628 kJ/mol
6,TAGGTCACGTGATGTC,0.837 kJ/mol
7,GGTCTCACGTGGGAGA,0.795 kJ/mol
8,TATAACACGTGTTTGT,-0.251 kJ/mol
9,AATTTCACGTGGGGAA,1.21 kJ/mol
10,TTCGGCACGTGTGTCT,0.167 kJ/mol
11,GCATGCACGTGTGGAT,0.502 kJ/mol
12,TTGGGCACGTGTCGCT,-0.962 kJ/mol
13,AATGCCACGTGGGGAT,-0.502 kJ/mol
14,AGCTACACGTGGGCGG,-0.418 kJ/mol
15,AAGTGCACGTGTTTCT,0.251 kJ/mol
16,ATGGTCACGTGTCCTG,0.92 kJ/mol
17,AGTTCCACGTGAGATG,0.879 kJ/mol
18,TCGTTCACGTGATGGT,1.63 kJ/mol
19,AGTTTCACGTGGGGAA,1.09 kJ/mol
20,GGGGACACGTGGGTAC,-0.418 kJ/mol
21,AGGGGCACGTGTGATC,0.167 kJ/mol
